Read counts are not given, so values of variants with three or more changes are uncertain.
B1: LINE1-mini (parent)
chain: GGCAGAGCUCAACACAGCGUGGCAAAGUGGCUGUGGCUAGACUGCC

Variants of: B1
Assay: self-cleavage, relative activity (ratio to wild type); higher = more cleavage; in vitro, sequencing; the parent is a self-cleaving ribozyme

| Variant | self-cleavage |
| --- | --- |
| G21C C23A G35A | 0.39 |
| G7C G19U G36U | 0.03 |
| G27C A41C C45A | 0.08 |
| G5C G7U C42G G44C | 0.07 |
| A4U U20A C31U C46U | 0.01 |
| C3U G17U G21U U38G A41C | 0.02 |
| C8A C15U G30C G33U | 0.56 |
| A4C A11U G19C U20G G44C | 0 |
| C18U C23G A26U G35U | 0.03 |
| C10U A24U G29U A39U A41U C45A | 0.12 |
| A26C U28A C31G G44U | 0.04 |
| U9G G19A U20G G29A U38G C42U | 0.02 |
| U9A A12U C13U | 0.39 |
| G1A G7U G29A U38G | 0.01 |
| C3U A41C C46U | 0.06 |
| C15G G27U G33C G44U | 0.11 |
| C8A C18A U32C G35C U38G | 0.03 |
| G1U C10U G30A | 0.15 |
| G1A U28A U34G C45U | 0.01 |
| G1C C13A A24C | 0.02 |
| C13G C18U U38G | 0.02 |
| C8A A14U G22A G27U | 0.13 |
| C13A C37U U43A G44A | 0.15 |
| A12U A24G G36A U38G | 0 |

| Variant | self-cleavage |
| --- | --- |
| C10A A26U C31A | 0.02 |
| C10U G30C C37A | 0.02 |
| C15A G21U G40A | 0.01 |
| C23A C45U C46U | 0.22 |
| A16G G35U U43A | 0.05 |
| G2C C8A C10A | 0.01 |
| A24C C31A U43C G44U | 0.02 |
| A4U G5A G36C | 0.2 |
| G1A U9C G36A U38A | 0.12 |
| C10U A14U C23G U32G C46U | 0.04 |
| C18A C37G U38A | 0.01 |
| A4C G29A C31A | 0.07 |
| G1C A25C G30U C37A G40A | 0.01 |
| C15A G19C G44U | 0.15 |
| G1U U9A G19U C42U C45G | 0.07 |
| U9C C23U G29U | 0.03 |
| G7A C8G A41U | 0.2 |
| G33A G35A C42A | 0.1 |
| A11G G19C A26U G30C G40A | 0.01 |
| G17A G21U C42A | 0.03 |
| C10G G17A A25C C31A C37G | 0.01 |
| C13U G22U G33C U34A G36U | 0.03 |
| G7A C23G A25C | 0.02 |
| C10A A11U C18A C23A A25G U34C C42U | 0 |

| Variant | self-cleavage |
| --- | --- |
| A14U U28A U32G | 0.06 |
| A4U C8A G17A | 0.23 |
| G2A G40C C45G | 0.31 |
| G5U C8A A12U A25U U38A | 0.13 |
| C8A G21C G29A C31A | 0.12 |
| C13U U34A A39U C45G | 0.14 |
| G1A C10A C13U A16U G21A A26G G27U C37U | 0.05 |
| G7A C13A U38G | 0.03 |
| A11U A24C G33U A39C | 0.02 |
| A25G C31A C37U G40C | 0.18 |
| A4C C10U G22A G36C A39C | 0.04 |
| C15G A41C C45G | 0.02 |
| A12C A26C G29U G35C C45U | 0.01 |
| A26G G33C G40U | 0.07 |
| G2A G33C C37G | 0.07 |
| G17C G22U G29C C31G C42A | 0.08 |
| U9A A16U G29U | 0.07 |
| G5U A14U C15A G17U | 0 |
| U20A C31U U34A | 0.05 |
| G7C C8U G17C G22C A25G G29C | 0.06 |
| A4G G7U A26U | 0.09 |
| G2U C8U U38A | 0.02 |
| U9A C15A U38A A39G A41U | 0.3 |
| C23U U28G G36C A41U | 0.22 |

| Variant | self-cleavage |
| --- | --- |
| A16C A24C G29U A39C G44A | 0.05 |
| U9C A12U A24U | 0.04 |
| C23U U28C U34G C42U | 0.04 |
| G21U G29U G35U | 0.03 |
| C10U G36U C42G | 0 |
| A4C C23A A24U | 0.12 |
| C3U A4C A14G G29U G30A G36C C46A | 1 |
| G1C G7C C10G C13A A25C G36U C37A | 0 |
| A16U G30C A39C | 0.03 |
| A26G G27U A39G | 0.04 |
| C3A U9C G27U G33A G36C | 0.05 |
| G2C C13A A16U | 0 |
| A6C A14U A24U | 0.14 |
| G1C C10A C23G | 0 |
| A4C C15G G21A A24G U38A | 0.05 |
| A14C G17U U28G | 0.08 |
| U20C G33U G35U C45U | 0.05 |
| C10U G21A G22C | 0.3 |
| A12U G17U G19C A25C | 0.27 |
| A4G A12G A24C C42A C45U C46U | 0.05 |
| A11U U28C A41U | 0.03 |
| A11C A12G A25G | 0 |
| U9G A12U G35A | 0.09 |
| A6U G21U C37G | 0 |

| Variant | self-cleavage |
| --- | --- |
| C23A G30C A41U | 0.63 |
| C13A A14G G17U C37G U38A C46U | 0.01 |
| G2U C18A G33U | 0.04 |
| G21C C23A G27C | 2.43 |
| G1U G2A G7U G44C | 0.09 |
| A6C G35A C45U | 0.14 |
| A16U C31G C45A | 0.01 |
| G21A A24U U28A G35C C42U | 0.05 |
| A11U C13U G35U U38A A41U U43G C46U | 0.01 |
| C8A A12C G33U U43A | 0.04 |
| C10U A14C C18A G40C | 0.01 |
| U20G U32G U38G U43C | 0.01 |
| C10U U28A G40U | 0.07 |
| C3A U9A G17C C18A A24G | 0.26 |
| G1C C13G C31U G44U | 0.01 |
| C10A G27U U34C | 0.08 |
| G2A G33U C46G | 0.11 |
| C10G U20C A39C | 0.01 |
| U9A A24U C46U | 0.05 |
| U9C G35C C37U A39U | 0.01 |
| G2U A14G G29A G35U A39G | 0.13 |
| G1A C3G C15G G21C | 0.06 |
| C13U G22C U43A | 0.03 |
| U20A U32A U34C G44A | 0.05 |

| Variant | self-cleavage |
| --- | --- |
| C10G C13A G17U A25C C37U A41U C42U | 0.01 |
| C8U A16G A25C A26U | 0.01 |
| G7U C37U G44A C46A | 0.24 |
| G1C G2A G33A G35U | 0.06 |
| G1C C3G G7C C10A G27A G29C | 0.02 |
| C3A C42A C45G | 0.5 |
| G35A G36A G40U | 0.11 |
| A4C A12C C23U | 0 |
| A16G G27C G33U | 0.01 |
| A26G G36A A41G | 0.02 |
| G5C C8A G17A G29U C42A | 0.25 |
| G1U C23U A41C | 0 |
| C3U C15U C31G C45G | 0.04 |
| G21A G22A G30C A39U G44U | 0.09 |
| A6C C8G C13U C42G | 0 |
| C3G C13G G17C A26G | 0.06 |
| C15U G19C G36A C37A C46U | 0.1 |
| G1A C31G C45A | 0.01 |
| C10G A12G A16G C37A | 0.03 |
| G5U C15G C23A A25U G36A C42U | 0.05 |
| A6U A24U A25C A41G C46A | 0.1 |
| C10A A12G U20C U38C | 0.01 |
| G2A C18A A26U G29U A41G C42G | 0.02 |
| C15G U20C U28A C45A | 0.02 |

| Variant | self-cleavage |
| --- | --- |
| C3U C15U G30A | 0.08 |
| G1U G5A G7C U9A G21U A39C G40A | 0.11 |
| C8G G27U G36A A39G | 0.01 |
| G1U A26C G27C C37U | 0.01 |
| G2A C31A C37A G44U C46G | 0.37 |
| G2A C13G G33A | 0.05 |
| G7C G19U G21C C31A A41U | 0.08 |
| U20C C23U G35C C42U | 0.03 |
| G29U G33U U34C | 0.12 |
| G5U C15A G36A A41U | 0.07 |
| G1C G5U G33U A39G C45U | 0.02 |
| C3U C10U A39U C42G | 0.06 |
| A11U G29A G36C | 0.02 |
| A4U A11C C37U | 0.02 |
| C10A A25C G27A | 0.03 |
| U9A G17A A41C | 0.02 |
| A4U G5U G17C | 0.06 |
| G1U U9G A11U | 0.01 |
| A6C U9C G30A C31A | 0.03 |
| G5C G33C G36C | 0.02 |
| C8A C13A C23U A41U | 0.13 |
| A6G C8A G29A | 0.08 |
| A24C U28A U34G G40A | 0.26 |
